# Experimental data: the supplement of paper PMC8728848
# The list shows a part of the results.
# B1: Microvirin-2 (Microcystis aeruginosa) (protein)
# chain: MPNFSHTCSSINYDPDSTILSAECQARDGEWLPTELRLSDHIGNIDGELQFGDQNFQETCQDCHLEFGDGEQSVWLVCTCQTMDGEWKSTQILLDSQIDNNDSQLEIGGSMPNFSHTCSSINYDPDSTILSAECQARDGEWLPTELRLSDHIGNIDGELQFGDQNFQETCQDCHLEFGDGEQSVWLVCTCQTMDGEWKSTQILLDSQIDNNDSQLEIG
# How the values were obtained:
# Test in all cases: glycan array binding signal (z-score within array); higher = stronger binding
# Conditions in all cases: glycan notation: IUPAC condensed, linker removed
# [1] = molecular target: Neu5Ac(a2-3)Gal(b1-3)[Fuc(a1-4)]GlcNAc
# How it was run: (§1)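 Glycan array binding is given as a within-array Z-score, which can be read as non-binding when negative. The arrays, 3228 of them, came from the Consortium for Functional Glycomics database and were retained only where the protein sequence was available. Z-scores were averaged across arrays of the same protein sequence at different concentrations or buffers and across linkers.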
# [2] = molecular target: Neu5Ac(a2-3)Gal(b1-3)[Fuc(a1-4)]GlcNAc(b1-3)Gal(b1-3)[Fuc(a1-4)]GlcNAc
# How it was run: as §1
# [3] = molecular target: Neu5Ac(a2-3)Gal(b1-3)[Fuc(a1-4)]GlcNAc(b1-3)Gal(b1-4)[Fuc(a1-3)]GlcNAc
# How it was run: as §1
# [4] = molecular target: Neu5Ac(a2-3)Gal(b1-3)[GlcNAc(b1-6)]GalNAc
# How it was run: as §1
# [5] = molecular target: Neu5Ac(a2-3)Gal(b1-3)[Neu5Ac(a2-6)]GalNAc
# How it was run: as §1
# [6] = molecular target: Neu5Ac(a2-3)Gal(b1-3)[Neu5Ac(a2-6)]GlcNAc(b1-3)[Fuc(a1-3)[Gal(b1-4)]GlcNAc(b1-6)]Gal(b1-4)Glc
# How it was run: as §1
# [7] = molecular target: Neu5Ac(a2-3)Gal(b1-3)]Neu5Ac(a2-3)Gal(b1-4)]GlcNAc
# How it was run: as §1
# [8] = molecular target: Neu5Ac(a2-3)Gal(b1-4)Glc
# How it was run: as §1
# [9] = molecular target: Neu5Ac(a2-3)Gal(b1-4)GlcNAc
# How it was run: as §1
# [10] = molecular target: Neu5Ac(a2-3)Gal(b1-4)GlcNAc(b1-2)Man
# How it was run: as §1
# [11] = molecular target: Neu5Ac(a2-3)Gal(b1-4)GlcNAc(b1-2)Man(a1-3)[GlcNAc(b1-4)][Neu5Ac(a2-3)Gal(b1-4)GlcNAc(b1-2)Man(a1-6)]Man(b1-4)GlcNAc(b1-4)GlcNAc
# How it was run: as §1
# [12] = molecular target: Neu5Ac(a2-3)Gal(b1-4)GlcNAc(b1-2)Man(a1-3)[Neu5Ac(a2-3)Gal(b1-4)GlcNAc(b1-2)Man(a1-6)]Man(b1-4)GlcNAc(b1-4)GlcNAc
# How it was run: as §1
# [13] = molecular target: Neu5Ac(a2-3)Gal(b1-4)GlcNAc(b1-2)Man(a1-3)[Neu5Ac(a2-3)Gal(b1-4)GlcNAc(b1-2)Man(a1-6)]Man(b1-4)GlcNAc(b1-4)[Fuc(a1-6)]GlcNAc
# How it was run: as §1
# [14] = molecular target: Neu5Ac(a2-3)Gal(b1-4)GlcNAc(b1-2)Man(a1-3)[Neu5Ac(a2-6)Gal(b1-4)GlcNAc(b1-2)Man(a1-6)]Man(b1-4)GlcNAc(b1-4)GlcNAc
# How it was run: as §1
# [15] = molecular target: Neu5Ac(a2-3)Gal(b1-4)GlcNAc(b1-2)[Neu5Ac(a2-3)Gal(b1-4)GlcNAc(b1-4)]Man(a1-3)[GlcNAc(b1-4)][Neu5Ac(a2-3)Gal(b1-4)GlcNAc(b1-2)[Neu5Ac(a2-3)Gal(b1-4)GlcNAc(b1-6)]Man(a1-6)]Man(b1-4)GlcNAc(b1-4)GlcNAc
# How it was run: as §1
# [16] = molecular target: Neu5Ac(a2-3)Gal(b1-4)GlcNAc(b1-2)[Neu5Ac(a2-3)Gal(b1-4)GlcNAc(b1-4)]Man(a1-3)[GlcNAc(b1-4)][Neu5Ac(a2-3)Gal(b1-4)GlcNAc(b1-4)Man(a1-6)]Man(b1-4)GlcNAc(b1-4)GlcNAc
# How it was run: as §1
# [17] = molecular target: Neu5Ac(a2-3)Gal(b1-4)GlcNAc(b1-2)[Neu5Ac(a2-3)Gal(b1-4)GlcNAc(b1-6)]Man(a1-6)[Neu5Ac(a2-3)Gal(b1-4)GlcNAc(b1-2)Man(a1-3)]Man(b1-4)GlcNAc(b1-4)GlcNAc
# How it was run: as §1
# [18] = molecular target: Neu5Ac(a2-3)Gal(b1-4)GlcNAc(b1-2)[Neu5Ac(a2-3)Gal(b1-4)GlcNAc(b1-6)]Man(a1-6)[Neu5Ac(a2-3)Gal(b1-4)GlcNAc(b1-2)Man(a1-3)][GlcNAc(b1-4)]Man(b1-4)GlcNAc(b1-4)GlcNAc
# How it was run: as §1
# [19] = molecular target: Neu5Ac(a2-3)Gal(b1-4)GlcNAc(b1-3)Gal
# How it was run: as §1
# [20] = molecular target: Neu5Ac(a2-3)Gal(b1-4)GlcNAc(b1-3)Gal(b1-3)GlcNAc
# How it was run: as §1
# [21] = molecular target: Neu5Ac(a2-3)Gal(b1-4)GlcNAc(b1-3)Gal(b1-4)GlcNAc
# How it was run: as §1
# [22] = molecular target: Neu5Ac(a2-3)Gal(b1-4)GlcNAc(b1-3)Gal(b1-4)GlcNAc(b1-2)Man(a1-3)[Neu5Ac(a2-3)Gal(b1-4)GlcNAc(b1-3)Gal(b1-4)GlcNAc(b1-2)Man(a1-6)]Man(b1-4)GlcNAc(b1-4)GlcNAc
# How it was run: as §1
# [23] = molecular target: Neu5Ac(a2-3)Gal(b1-4)GlcNAc(b1-3)Gal(b1-4)GlcNAc(b1-3)Gal(b1-4)GlcNAc
# How it was run: as §1
# [24] = molecular target: Neu5Ac(a2-3)Gal(b1-4)GlcNAc(b1-3)Gal(b1-4)GlcNAc(b1-3)Gal(b1-4)GlcNAc(b1-2)Man(a1-3)[Neu5Ac(a2-3)Gal(b1-4)GlcNAc(b1-3)Gal(b1-4)GlcNAc(b1-3)Gal(b1-4)GlcNAc(b1-2)Man(a1-6)]GalNAc
# How it was run: as §1
# [25] = molecular target: Neu5Ac(a2-3)Gal(b1-4)GlcNAc(b1-3)Gal(b1-4)GlcNAc(b1-3)GalNAc
# How it was run: as §1
# [26] = molecular target: Neu5Ac(a2-3)Gal(b1-4)GlcNAc(b1-3)Gal(b1-4)GlcNAc(b1-3)[Neu5Ac(a2-3)Gal(b1-4)GlcNAc(b1-3)Gal(b1-4)GlcNAc(b1-6)]GalNAc
# How it was run: as §1
# [27] = molecular target: Neu5Ac(a2-3)Gal(b1-4)GlcNAc(b1-3)Gal(b1-4)GlcNAc(b1-6)[Gal(b1-3)]GalNAc
# How it was run: as §1
# [28] = molecular target: Neu5Ac(a2-3)Gal(b1-4)GlcNAc(b1-3)Gal(b1-4)[Fuc(a1-3)]GlcNAc
# How it was run: as §1
# [29] = molecular target: Neu5Ac(a2-3)Gal(b1-4)GlcNAc(b1-3)GalNAc
# How it was run: as §1
# [30] = molecular target: Neu5Ac(a2-3)Gal(b1-4)GlcNAc(b1-3)[Neu5Ac(a2-3)Gal(b1-4)GlcNAc(b1-6)]GalNAc
# How it was run: as §1
binder,measurement,setting,value
B1,glycan array binding signal (z-score),[1],-0.143
same,glycan array binding signal (z-score),[2],-0.084
same,glycan array binding signal (z-score),[3],-0.048
same,glycan array binding signal (z-score),[4],-0.131
same,glycan array binding signal (z-score),[5],-0.108
same,glycan array binding signal (z-score),[6],-0.128
same,glycan array binding signal (z-score),[7],-0.137
same,glycan array binding signal (z-score),[8],-0.134
same,glycan array binding signal (z-score),[9],-0.128
same,glycan array binding signal (z-score),[10],0.072
same,glycan array binding signal (z-score),[11],-0.146
same,glycan array binding signal (z-score),[12],-0.14
same,glycan array binding signal (z-score),[13],-0.139
same,glycan array binding signal (z-score),[14],-0.142
same,glycan array binding signal (z-score),[15],-0.136
same,glycan array binding signal (z-score),[16],-0.132
same,glycan array binding signal (z-score),[17],-0.102
same,glycan array binding signal (z-score),[18],-0.147
same,glycan array binding signal (z-score),[19],-0.144
same,glycan array binding signal (z-score),[20],-0.143
same,glycan array binding signal (z-score),[21],-0.145
same,glycan array binding signal (z-score),[22],0.005
same,glycan array binding signal (z-score),[23],-0.142
same,glycan array binding signal (z-score),[24],0.074
same,glycan array binding signal (z-score),[25],-0.139
same,glycan array binding signal (z-score),[26],-0.105
same,glycan array binding signal (z-score),[27],-0.115
same,glycan array binding signal (z-score),[28],-0.137
same,glycan array binding signal (z-score),[29],-0.136
same,glycan array binding signal (z-score),[30],-0.144
